The full ranking holds about 81,000 sequences; the median of “one-hybrid fitness for binding parS DNA” is about -0.17, and the highest 2% start at about 0.51. The list shows a part of the results.
B1: Caulobacter ParB omega fusion; a variant is named by its letters at X, in order, B8GW30 (parent)
chain: MESVVVGEPGMSEGRRGLGRGLSALLGEVDAAPAQAPGEQLGGSREAPIEILQRNPDQPRRTFREEDLEDLSNSIREKGVLQPILVRPSPDTAGEYQIVAGERAWRAAQRAGLKTVPIMVRELDDLAVLEIGIIENVQRADLNVLEEALSYKVLMEKFERTQENIAQTIGKSXSHVANXMRLLXLPDEVQSYLVSGELTAXHARAIAAAADPVALAKQIIEGGLSVRETEALARKAPNLSAGKSKGGRPPRVKDTDTQALESDLSSVLGLDVSIDHRGSTGTLTITYATLEQLDDLCNRLTRGI

Variants of: B1
Experiment: one-hybrid fitness for binding parS DNA (scaled: cognate 1, non-cognate 0); higher = stronger binding
Conditions: with parS DNA site
How it was run: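 Caulobacter ParB libraries with four specificity codons randomised were screened by bacterial one-hybrid selection in the E. coli USO strain, using a HIS3 reporter whose site lies 19 bp from the promoter. Selection ran for 48 hours at 37°C on M9 lacking histidine, with 0.1 mM IPTG and 5 mM 3-AT. Plasmids were Illumina-sequenced before and after selection, three replicate libraries were pooled, and variants with under 10 reads were dropped. Fitness is the log change in each variant's read ratio to wild type, rescaled against the cognate and non-cognate sites.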

Variant	one-hybrid fitness for binding parS DNA
KMIT	≤ 0.2
RHDV	≤ 0.2
NNQG	≤ 0.2
DGWM	≤ 0.2
FFTN	≤ 0.2
SNLV	≤ 0.2
ITPS	≤ 0.2
ISTQ	≤ 0.2
QHPR	≤ 0.2
SSVL	≤ 0.2
SSMS	≤ 0.2
RFPC	0.424
DQAI	≤ 0.2
NIQT	≤ 0.2
QGSS	≤ 0.2
RKFD	≤ 0.2
RIIK	≤ 0.2
EVQI	≤ 0.2
GPYS	≤ 0.2
KAGW	≤ 0.2
CMYM	≤ 0.2
VEWS	≤ 0.2
FVLF	≤ 0.2
TRLT	≤ 0.2
WHQG	≤ 0.2

Variant	one-hybrid fitness for binding parS DNA
DHPT	≤ 0.2
QCCR	≤ 0.2
QQAH	≤ 0.2
RWCW	≤ 0.2
IKSE	≤ 0.2
IKPI	≤ 0.2
RHMM	0.293
PHPP	≤ 0.2
VDMI	≤ 0.2
SVVY	≤ 0.2
LRFG	≤ 0.2
MQDN	≤ 0.2
TRHL	≤ 0.2
MSPD	≤ 0.2
PRIY	≤ 0.2
GEHT	≤ 0.2
RLGR	≤ 0.2
FSNF	≤ 0.2
YTGT	≤ 0.2
YKDM	≤ 0.2
SAQM	≤ 0.2
GSYH	≤ 0.2
HPLE	≤ 0.2
HSHT	≤ 0.2
QSIT	≤ 0.2

Variant	one-hybrid fitness for binding parS DNA
TTME	≤ 0.2
EYPS	≤ 0.2
MPYC	≤ 0.2
GKLT	≤ 0.2
TAIH	≤ 0.2
RIQP	≤ 0.2
CNQL	≤ 0.2
PARY	≤ 0.2
VQLK	≤ 0.2
ACQA	≤ 0.2
QIAC	≤ 0.2
WCVN	≤ 0.2
ASYD	≤ 0.2
CTIC	≤ 0.2
STEG	≤ 0.2
FGHT	≤ 0.2
MVTT	≤ 0.2
PHGL	≤ 0.2
DVMF	≤ 0.2
MTKG	≤ 0.2
YLLF	≤ 0.2
QSHF	≤ 0.2
NGAS	≤ 0.2
QHQH	≤ 0.2
SESC	≤ 0.2

Variant	one-hybrid fitness for binding parS DNA
SKKC	≤ 0.2
HAKW	≤ 0.2
FKPS	≤ 0.2
YMTC	≤ 0.2
CKAS	≤ 0.2
CQES	≤ 0.2
PYSE	≤ 0.2
LCTW	≤ 0.2
IHLL	≤ 0.2
DNES	≤ 0.2
WMTP	≤ 0.2
ALHC	≤ 0.2
LNER	≤ 0.2
REAT	≤ 0.2
RQVK	≤ 0.2
IGTM	≤ 0.2
GNMR	≤ 0.2
YYLC	≤ 0.2
ADCT	≤ 0.2
ERMS	≤ 0.2
VKRH	≤ 0.2
ADIG	≤ 0.2
AVDA	≤ 0.2
SASA	≤ 0.2
METV	≤ 0.2

Variant	one-hybrid fitness for binding parS DNA
DNRA	≤ 0.2
TRET	≤ 0.2
LEVS	≤ 0.2
RNIS	0.65
SSHY	≤ 0.2
HHHS	≤ 0.2
TTQF	≤ 0.2
TFQE	≤ 0.2
LCHM	≤ 0.2
HETY	≤ 0.2
EEKS	≤ 0.2
ANQE	≤ 0.2
PNCS	≤ 0.2
MENS	≤ 0.2
CYTA	≤ 0.2
NFKC	≤ 0.2
DLDC	≤ 0.2
SSGW	≤ 0.2
GPRA	≤ 0.2
LPTI	≤ 0.2
DDSG	≤ 0.2
CPGM	≤ 0.2
HNTC	≤ 0.2
ATHT	≤ 0.2
TNRM	≤ 0.2

Variant	one-hybrid fitness for binding parS DNA
QWHT	≤ 0.2
QIAR	≤ 0.2
PDHP	≤ 0.2
QILA	≤ 0.2
PIPC	≤ 0.2
NTHE	≤ 0.2
NKLF	≤ 0.2
RAMP	≤ 0.2
KANF	≤ 0.2
KCSY	≤ 0.2
TRAE	≤ 0.2
HRTE	≤ 0.2
HEQL	≤ 0.2
CTSH	≤ 0.2
RDRG	≤ 0.2
RANS	0.96
FGEY	≤ 0.2
GQAC	≤ 0.2
NDHY	≤ 0.2
FDSS	≤ 0.2
PHFS	≤ 0.2
GTEL	≤ 0.2
ENDM	≤ 0.2
RMPC	0.725
FRWC	≤ 0.2

Variant	one-hybrid fitness for binding parS DNA
TRMY	≤ 0.2
VSQK	≤ 0.2
AVRG	≤ 0.2
GRVH	≤ 0.2
PGDT	≤ 0.2
IKAF	≤ 0.2
LSQR	≤ 0.2
AYRH	≤ 0.2
IGHD	≤ 0.2
WSRD	≤ 0.2
TLCI	≤ 0.2
QGYR	≤ 0.2
VPYN	≤ 0.2
PPSL	≤ 0.2
RKTT	0.754
NAEM	≤ 0.2
RIAP	≤ 0.2
GSMQ	≤ 0.2
DVIS	≤ 0.2
YRRF	≤ 0.2
IRWT	≤ 0.2
NAIL	≤ 0.2
EHQR	≤ 0.2
NMKY	≤ 0.2
FINS	≤ 0.2

Variant	one-hybrid fitness for binding parS DNA
RGIM	≤ 0.2
QVAE	≤ 0.2
QVDK	≤ 0.2
GHTS	≤ 0.2
TKRG	≤ 0.2
KDEG	≤ 0.2
FMTR	≤ 0.2
AQEI	≤ 0.2
KREW	≤ 0.2
LQCA	≤ 0.2
WCFG	≤ 0.2
LSIR	≤ 0.2
TRLS	≤ 0.2
VYAT	≤ 0.2
LPDV	≤ 0.2
QSDI	≤ 0.2
IPAC	≤ 0.2
QNDD	≤ 0.2
GLQV	≤ 0.2
QQSA	≤ 0.2

From a collection of fitness landscapes (doi:10.1016/j.celrep.2020.107928)
